Data as given in publication PMC4336329 (PLoS ONE, 2015).
Out of some 310,000 compounds screened, about 14,000 (4.5%) showed an effect of 50% or more. Effects have a minus sign here. Some of the results follow.

molecular target: human ether-à-go-go-related gene (hERG) potassium channel (human, UniProt Q12809); assay: primary screen, population patch clamp on CHO cells stably expressing hERG
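Further: peak tail current of the secondary pulse compared with the same well before compound.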

Chain of human ether-à-go-go-related gene (hERG) potassium channel (Q12809 whole entry, looked up): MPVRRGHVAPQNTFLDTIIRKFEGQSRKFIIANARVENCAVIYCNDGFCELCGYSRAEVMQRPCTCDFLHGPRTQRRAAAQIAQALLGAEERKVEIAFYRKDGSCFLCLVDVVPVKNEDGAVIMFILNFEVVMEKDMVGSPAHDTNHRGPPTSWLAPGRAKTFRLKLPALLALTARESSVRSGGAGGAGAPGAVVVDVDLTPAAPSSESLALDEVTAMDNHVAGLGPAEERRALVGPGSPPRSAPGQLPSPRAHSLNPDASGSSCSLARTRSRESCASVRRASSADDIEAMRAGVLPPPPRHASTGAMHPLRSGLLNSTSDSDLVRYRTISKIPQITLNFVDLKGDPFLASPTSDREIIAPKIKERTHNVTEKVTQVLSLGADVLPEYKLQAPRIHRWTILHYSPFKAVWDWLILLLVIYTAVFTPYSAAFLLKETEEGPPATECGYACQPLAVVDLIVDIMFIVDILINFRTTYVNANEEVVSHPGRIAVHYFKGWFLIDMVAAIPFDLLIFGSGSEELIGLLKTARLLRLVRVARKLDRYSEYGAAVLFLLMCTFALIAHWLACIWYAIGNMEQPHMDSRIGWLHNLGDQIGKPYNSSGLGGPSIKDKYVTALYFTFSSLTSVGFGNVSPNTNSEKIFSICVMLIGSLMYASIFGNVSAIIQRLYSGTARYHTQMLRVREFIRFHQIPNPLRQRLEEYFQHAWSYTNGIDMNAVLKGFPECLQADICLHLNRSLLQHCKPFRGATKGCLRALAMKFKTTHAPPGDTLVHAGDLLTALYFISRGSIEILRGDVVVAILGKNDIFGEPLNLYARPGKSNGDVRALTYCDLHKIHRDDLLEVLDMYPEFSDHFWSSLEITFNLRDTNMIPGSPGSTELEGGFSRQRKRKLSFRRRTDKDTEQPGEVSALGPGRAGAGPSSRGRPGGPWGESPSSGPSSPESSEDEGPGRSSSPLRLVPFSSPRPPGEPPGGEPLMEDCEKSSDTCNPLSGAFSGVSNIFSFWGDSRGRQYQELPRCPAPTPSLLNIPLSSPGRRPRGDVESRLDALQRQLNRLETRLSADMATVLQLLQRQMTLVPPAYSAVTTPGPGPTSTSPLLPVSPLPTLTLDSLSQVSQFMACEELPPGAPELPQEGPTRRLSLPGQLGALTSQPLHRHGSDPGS

Compound	hERG current change (%, negative = inhibition) at 10uM [%]
COc1ccc(NC(=O)c2cc3ccccc3oc2=O)c(OC)c1	29.2
OCC1(Cc2cccc(Cl)c2)CCCN(Cc2cnn(-c3ccccc3)c2)C1 (stereo not drawn)	-54.7
COc1ccccc1OCCCn1cc(C(C)=O)c2ccccc21	-10.5
C/C(=N\NC(=O)C1COc2ccccc2O1)c1cc2ccccc2o1 (stereo not drawn)	19.7
Cc1cc(C(=O)N/N=C/c2cccs2)n[nH]1	18.9
COc1ccc(N2C3=C(CC4=C2CCCC4=O)C(=O)CCC3)cc1	-21.3
COc1ccccc1NC(=O)Nc1ccc(Cl)c(S(=O)(=O)Nc2ccccc2OC)c1	11.2
Cc1ccc2oc(C(=O)Nc3nnc(CC(C)C)s3)c(C)c2c1	11.5
O=C(CNC(=O)c1ccco1)OCC(=O)c1ccc2c(c1)CCCC2	0.0827
Cc1cccc(S(=O)(=O)c2c(N)n(/N=C/c3ccccc3)c3nc4ccccc4nc23)c1	1.87
O=C(CCC(=O)N1CC2C[C@@H](C1)Cn1c2cccc1=O)NCCc1ccccc1F	0.0359
Cc1nc2ccccc2c(=O)n1Cc1ccc([N+](=O)[O-])cc1	-74.4
Cc1ccc(NC(=O)CSc2nc3ccccc3c(=O)n2CCCC(=O)NCC2CCCO2)cc1 (stereo not drawn)	-0.641
CCn1cc(C(=O)O)c(=O)c2cc(S(=O)(=O)N3CCCCCC3)ccc21	10.7
CCOCCCn1c(=S)[nH]c2cc(C(=O)N3CCN(C)CC3)ccc2c1=O	-12.1
O=C(/C=C/c1ccco1)NC(=S)NNC(=O)c1ccco1	23.8
COc1ccc([C@@H]2[C@@H]3C(=O)N(C(C)(C)C)C(=O)[C@@H]3[C@]3(CC(C)C)C(=O)N(c4cccc(F)c4)C(=O)N23)cc1	22.6
COc1cc(C(C)=O)ccc1OCC(=O)N(CCC1=CCCCC1)c1c(N)n(Cc2ccccc2)c(=O)[nH]c1=O	9.5
COC(=O)c1sccc1NC(=O)Nc1ccc(C)cc1	15.4
Cc1ccccc1N1CCN(S(=O)(=O)c2nnc(NC(=O)c3ccco3)s2)CC1	3.69
COn1c(-c2ccc(Cl)cc2Cl)nc2ncccc21	-1.12
O=C(NCCCn1ccnc1)C(=O)Nc1ccccc1	11.8

Compound	hERG current change (%, negative = inhibition) at 10uM [%]
N#Cc1cccc(NC(=O)Cn2cnc(S(=O)(=O)N3CCCCC3)c2)c1	9.25
Cc1cccc(NC(=O)NN2CCN(C)CC2)c1C	28.4
Cc1ccc(NC(=O)CN(C)C(=O)Cc2c(Cl)cccc2Cl)cc1	5.81
Cc1ccc(C(=O)OCC(=O)Nc2ccc3[nH]c(=O)[nH]c3c2)cc1S(=O)(=O)N1CCOCC1	4.19
CN(C)CC(C(=O)c1ccccc1)c1ccccc1.Cl (stereo not drawn)	-13.2
O=C(NC(=S)NC1CCCCCC1)c1cncc(Br)c1	16.8
CCn1c(SCC(=O)c2[nH]c(C)c(C(C)=O)c2C)nnc1-c1cccs1	-24.8
O=C(CSc1cccs1)Nc1ccc(Cl)cc1	4.57
CC(=O)NCCc1ccc(S(=O)(=O)N(C)C2CCS(=O)(=O)C2)cc1 (stereo not drawn)	6.71
Cc1ccc(C)n1-c1sc2c(c1C#N)CCCC2	0.63
Cc1nn(C)c(Oc2cccc(Cl)c2)c1C=O	8.1
CN(C)CCNC(=O)c1sc2cccc(F)c2c1Cl	-19.9
CCn1c(=O)cc(NC2=NCC(C)CN2c2cccc(Cl)c2)n(C)c1=O (stereo not drawn)	-16.9
Cc1ccc(NC(=O)CN2C(=O)N/C(=C/c3cccn3-c3ccc(C(=O)O)cc3)C2=O)cc1	24.8
CC(=O)Nc1cccc(N=NN2CCCCC2)c1	7.1
Cc1[nH]c2ccccc2c1CCNCc1cccnc1.Cl	7.81
O=C(O)c1cc([N+](=O)[O-])ccc1C(=O)Nc1cccc([N+](=O)[O-])c1	8.76
CCc1nc2ccccc2c(=O)n1-c1ccccc1OC	2.58
CC(C)(C)NC(=O)COc1ccc(CNc2ncn[nH]2)cc1	7.04
Cc1ccc(C2(C)NC(=O)N(CC(=O)Nc3cccnc3Cl)C2=O)cc1 (stereo not drawn)	23.8
COCc1cc(CN2CCCC(C(=O)Nc3ccc(-c4ccco4)cc3)C2)ccc1OC (stereo not drawn)	-7.12
COc1ccc(OC)c(Nc2ncnc3ccc(Br)cc23)c1	13

Compound	hERG current change (%, negative = inhibition) at 10uM [%]
C#CCOCCOCCOCCNc1nc(N2CCN(C(=O)[C@H]([C@@H](C)O)n3cc(CCCC[NH3+])nn3)CC2)nc(N2CCN(C(=O)[C@H]([C@@H](C)CC)n3cc(CCCC[NH3+])nn3)CC2)n1.[Cl-]	29.7
c1cncc(CN=C2Nc3ccccc3CS2)c1	-4.61
COc1ccc(OCCN2C(=O)NC3(CCc4ccccc4C3)C2=O)cc1 (stereo not drawn)	-49.7
COC(=O)c1sccc1-c1ccc(/C=N/OCc2c(Cl)cccc2Cl)o1	-1.86
COc1ccccc1NC(=S)N1CCOCC1	19.5
CCCNC(=O)CC(NS(=O)(=O)c1ccc(Cl)cc1)c1ccco1 (stereo not drawn)	-10.1
CC1(C)c2[nH]c3ccccc3c2C[C@@H]2C(=O)N(Cc3ccco3)C(=O)N21	4.71
COc1ccccc1N1C(=O)c2ccccc2NC1c1ccc(O)cc1 (stereo not drawn)	11.3
COc1ccc(-c2[nH]ncc2CN(CCO)CC23CC4CC(CC(C4)C2)C3)c(OC)c1	-0.414
O=C(CSc1cccc[n+]1[O-])NN(c1ccccc1)c1ccccc1	12.4
COc1ccc(N2C(=O)/C(=C/N(C)C)NC2=S)cc1	14.9
Cl.OC(CC#CCN1CCOCC1)(c1ccccc1)c1ccccc1	5.69
O=C(/C=C\c1ccccc1[N+](=O)[O-])Nc1ccccc1	12.4
CCOC(=O)c1oc2cc(O)cc(O)c2c(=O)c1OCc1ccccc1	15.2
O=C(CSc1ncn[nH]1)Nc1c(Br)cc([N+](=O)[O-])cc1Br	6.61
CCOC(=O)C1CCCN(c2nc3c(C)cccn3c(=O)c2/C=C(\C#N)C(=O)NCc2ccco2)C1 (stereo not drawn)	-49.7
COc1ccc(-n2c(=O)c(NC(=O)c3ccccc3)c3n(c2=S)CCCCC3)cc1	-3.03
CC(C)(C)OC(=O)N1CCC[C@H]1C(=O)Nc1ccc(Br)cc1	13.5
CC(C)=C1C2CCC1C1C(=O)N(CCc3ccccc3)C(=O)C21 (stereo not drawn)	-8.65
CC(C)C(=O)NC(NC(=S)Nc1cccc2cccnc12)C(Cl)(Cl)Cl (stereo not drawn)	19.7
COc1ccc(Cl)cc1NC(=O)CC(=O)Nc1cc(Cl)ccc1OC	20.3
Cc1ccc(S(=O)(=O)N2CCN(C)CC2c2ccccc2)cc1.Cl (stereo not drawn)	-8.35

Compound	hERG current change (%, negative = inhibition) at 10uM [%]
Cn1c(COc2ccc(Cl)cc2)nc2ccccc2c1=O	-30.1
CC(=O)Nc1ccc(NC(=O)CCC(=O)OCC(=O)c2ccc(F)cc2)cc1	16.6
O=c1c2cc(O)c(O)cc2oc2cc(O)c(C3OC(CO)C(O)C(O)C3O)c(O)c12 (stereo not drawn)	17.9
O=C(CNC(=O)c1ccc(OC(F)F)cc1)NCc1ccccn1	-70.9
O=C(Cc1c[nH]c2ccccc12)NCc1cccs1	-2.55
C=CCOc1ccc2c(OC)c3ccoc3nc2c1OC	2.88
N#CCSc1nc2ccccc2c(=O)n1CCCC(=O)NCC1CCCO1 (stereo not drawn)	-12.4
COc1ccc(S(=O)(=O)N2CCC(C(=O)Oc3ccc(C)cc3)CC2)cc1OC	10.6
O=C(COC(=O)CNC(=O)c1ccc(Cl)cc1Cl)NC1CCCCCCC1	15.8
CN(Cc1c(F)cccc1Cl)c1ccc(S(=O)(=O)N2CCOCC2)cn1	6.42
CC(C)Nc1nc2n(c(=O)n1)CCN2C(C)C	3.15
CNC(=S)NCCc1ccc(OC)cc1	17
CCO[C@@H]1OC(C(=O)Nc2ccccc2)=C[C@H](c2coc3ccccc3c2=O)[C@H]1CCCO	-50.9
CC(CCc1ccccc1)NC(=O)CN1CCN(c2ccccc2)CC1 (stereo not drawn)	-55.8
CCOC(=O)C1=C(C(C)=O)C(c2cccnc2)C(C#N)=C(N)O1 (stereo not drawn)	3.51
COc1ccc(C(C)(C)C)cc1NC(=O)COC(=O)c1cc(SC)ccc1Cl	6.91
COc1ccc(C(=O)N2CCOCC2)cc1S(=O)(=O)N1CCCc2ccccc21	-31.4
COc1ccc(NC2CCCN(C(=O)c3ccc4nc(C)c(C)nc4c3)C2)cc1OC (stereo not drawn)	14
CCn1nnc(NC(=O)C(C)Oc2ccc(Cl)cc2Cl)n1 (stereo not drawn)	2.78
O=C(O)CCc1nnc2n(Cc3ccc(F)cc3)c(=O)c3ccccc3n12	6.3
Cc1ccccc1N(C(=O)CNC(=O)c1ccco1)C(C(=O)NC1CCCCC1)c1cccnc1 (stereo not drawn)	14.3
